Screen size: about 390,000 compounds; about 610 (0.16%) were called active. Roughly 4% stayed inconclusive and do not appear here. The call rests on the fitted dose curve; in most records, active means well fitted inhibition curve with a large enough effect; inconclusive means small, poorly fitted or top-dose-only effect, or effect the other way, or another doubt; inactive means no such curve, though single readings can be large or run the other way. The entries are a selection whose mix differs from that of the whole data set. A structure can be active in one record and inactive in another.
assay: Nrf2 qHTS screen for inhibitors: counterscreen for cytotoxicity; conditions: A549 ARE-Fluc cells, CellTiter-Fluor viability, 18-24 h; series mostly up to 46 µM; activity change, negative = cytotoxicity: at the top concentration
Method in brief: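 A549 ARE-Fluc cells in 5% FBS OPTI-MEM, 5000 cells/well, rested 2 h then exposed to compounds in concentration-response for 18-24 h at 37 °C. Viability by CellTiter-Fluor fluorescence (Ex 405/Em 525) after 30 min; luciferase luminescence (BugLite, 15 min, RT) read afterwards.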
On the % scale 0 is the no-effect control and ±100 the full control effect; potency means the concentration at half of the fitted maximal effect.

Row | Compound | activity change, negative = cytotoxicity | Potency
1 | COc1ccc(/C=C2/SC(=S)N(CCCC(=O)Nc3ccc(O)cc3)C2=O)cc1 | inactive: -4.1% | –
2 | COc1cccc(NC(=O)Nc2nc(-c3ccc(OC)c(OC)c3)cs2)c1 | – | active: 16.4 µM
3 | COc1ccc(NC(=O)/C(Cl)=C(/Cl)S(=O)Cc2ccccc2)cn1 (centres undefined) | – | active: 20.6 µM
4 | COc1ccc(NC(=O)/C(Cl)=C(/Cl)S(=O)Cc2ccc(Cl)cc2)cn1 (centres undefined) | – | active: 20.6 µM
5 | COc1ccc(C[C@H]2CN3C(=NC[C@@H]3Cc3ccc(O)cc3)N2C[C@H](C)NC(=O)CCC2CCCCC2)cc1 | inactive: -12.6% | –
6 | C1CCC(C(CC2CCCCN2)C2CCCCC2)CC1 (centres undefined) | inactive: -1.9% | –
7 | Cc1ccc(SC[C@H](Cc2ccccc2)N2CCN(CCc3ccccc3)CCC2=O)cc1 | inactive: -18.3% | –
8 | CN1C(=O)/C(=C2/C=Cc3ccccc3N2CCCS(=O)(=O)O)SC1=S | – | active: 20.6 µM
9 | Cn1nnnc1Sc1ncnc2scc(-c3ccc(F)cc3)c12 | – | inactive
10 | O=C(C1=C[C@H](c2ccc(Br)cc2)C[C@H](OCCCCO)O1)N1CCN(Cc2ccccc2)CC1 | inactive: 1.73% | –
11 | CN1CCCN(S(=O)(=O)c2ccc3c(c2)OCCO3)CC1 | inactive: 14.2% | –
12 | COc1ccc(C2CC(c3ccccc3)Oc3cc(OC)c(OC)c(OC)c32)cc1 (centres undefined) | inactive: 9% | –
13 | COc1cccc(CN2C(=O)[C@@H]3Cc4c([nH]c5ccccc45)C(C)(C)N3C2=O)c1 | inactive: -3.55% | –
14 | CCN1C(=O)/C(=C2/C=Cc3cc(C)ccc3N2CC)N(C)C1=S | – | active: 23.1 µM
15 | C=CC[C@@H](CC(=O)N[C@@H](CO)Cc1ccccc1)C(=O)NC[C@H](OC(=O)[C@@H](CC=C)Cc1ccc(F)cc1)c1ccccc1 | inactive: -12.2% | –
16 | OCC(O)[C@@H](O[C@H]1O[C@H](CO)[C@@H](O)[C@H](O)[C@H]1O)[C@H](O)[C@@H](O)CO (some centres undefined) | inactive: 0.97% | –
17 | Cc1ccc(C(=O)c2cc([N+](=O)[O-])ccc2N2CCCCC2)cc1 | – | active: 16.4 µM
18 | CCN1CCN(c2ccc(Nc3ccnc4ccccc34)cc2)CC1 | – | active: 6.51 µM
19 | CCOc1ccccc1NC(=O)CCn1nc(C)c(S(=O)(=O)N2CCCCC2)c1C | inactive: 0.783% | –
20 | O=S(=O)(Nc1cccc(-c2ccc(N3CCCCCC3)nn2)c1)c1cccc(F)c1 | inactive: -1.47% | –
21 | CNc1ccc(Br)cc(C(=O)/C=C/c2ccc(Cl)cc2Cl)c1=O | – | active: 20.6 µM

Row | Compound | activity change, negative = cytotoxicity | Potency
22 | Fc1ccc(C2CCNCC2COc2ccc3c(c2)OCO3)cc1 (centres undefined) | inactive: -13.2% | –
23 | O=S(=O)(N[C@H]1C[C@@H](NS(=O)(=O)OCC(Cl)(Cl)Cl)C2CCCCC21)OCC(Cl)(Cl)Cl (some centres undefined) | inactive: -3.56% | –
24 | Cn1nnnc1Sc1ncnc2scc(-c3cccc(C(F)(F)F)c3)c12 | inactive: -11.5% | –
25 | COc1ccc(S(=O)(=O)Nc2cccc(-c3ccc(N4CCCCCC4)nn3)c2)c(OC)c1 | inactive: -24.2% | –
26 | O=C(O)CCCN1C(=O)/C(=C/c2ccc(-c3nc4ccccc4s3)o2)SC1=S | inactive: -21.6% | –
27 | CN1C(=O)/C(=C\c2cc(N=Nc3ccccc3)ccc2O)SC1=S | inactive: -12.1% | –
28 | COc1ccc(C2c3ccc4ccccc4c3Oc3ncn(CCN4CCOCC4)c(=N)c32)cc1OC (centres undefined) | inactive: 0.0539% | –
29 | C=C1C(=O)C23C(O)C1CCC2C12CCCC(C)(COC(C)=O)C1C(O)C3(O)OC2 (centres undefined) | – | active: 18.4 µM
30 | CN1CCN(CCCN2c3ccccc3Sc3ccc(Cl)cc32)CC1 | inactive: -14.7% | –
31 | O=C(C[C@H]1C/C=C\CC[C@H](Cc2ccc(F)cc2)C(=O)OC[C@@H]2CCCN2C1=O)N[C@H](CO)Cc1ccccc1 | inactive: -0.829% | –
32 | O=C(O)C(O)c1ccccc1 (centres undefined) | inactive: -2.61% | –
33 | C=CC[C@@H](Cc1ccc(F)cc1)C(=O)OC[C@H]1CCCN1C(=O)[C@@H](CC=C)CC(=O)N[C@@H](CO)Cc1ccccc1 | inactive: -22.1% | –
34 | O=C(C[C@H]1C/C=C\C[C@@H](Cc2ccc(F)cc2)C(=O)O[C@H](c2ccccc2)CNC1=O)N[C@@H](CO)Cc1ccccc1 | inactive: -3.1% | –
35 | COc1ccc(S(=O)(=O)Nc2cccc(-c3ccc(N4CCCCCC4)nn3)c2)cc1OC | inactive: -21.8% | –
36 | Cc1ccc(Nc2c(-c3ccc(N4CCOCC4)cc3)nc3ncccn23)cc1 | inactive: -1.65% | –
37 | O=C1N[C@@H](c2ccccc2)COC(=O)[C@@H](Cc2ccc(F)cc2)CC/C=C/C[C@@H]1CC(=O)N(CCO)Cc1ccccc1 | inactive: -25% | –
38 | N=c1c2c(ccn1Cc1ccccc1)Oc1ccc3ccccc3c1C2c1ccccc1 (centres undefined) | – | active: 11.6 µM
39 | COc1cc(/C=C/c2[nH]c(=O)[nH]c(=O)c2[N+](=O)[O-])cc([N+](=O)[O-])c1O | – | active: 16.4 µM
40 | O=S(=O)(NCC(Nc1ccc(Cl)cc1)c1ccccc1)c1ccccc1 (centres undefined) | inactive: -10.3% | –
41 | Cc1noc(NS(=O)(=O)c2ccc(N/C=C/C(=O)c3ccncc3)cc2)c1C | inactive: -28.5% | –
42 | Nc1ccc(S(=O)(=O)Nc2ccnn2-c2ccccc2)cc1 | – | inactive

Row | Compound | activity change, negative = cytotoxicity | Potency
43 | O=C(CCCN1C(=O)/C(=C\c2cccs2)SC1=S)NNC(=O)c1ccncc1 | inactive: -3.64% | –
44 | C=CCC[C@@H](Cc1ccc(F)cc1)C(=O)OC[C@H](Cc1c[nH]c2ccccc12)NC(=O)[C@@H](CC=C)CC(=O)N[C@H](CO)Cc1ccccc1 | inactive: -9.96% | –
45 | CC(C)c1ccc(NC(=O)CCNS(=O)(=O)c2cccc3nsnc23)cc1 | inactive: 0.993% | –
46 | COc1ccc(C2=Nn3c(nnc3-c3ccc(OC)cc3)SC2)cc1 | inactive: -4% | –
47 | Cc1ccc(NC(=O)CSc2nc(-c3ccco3)cc(C(F)(F)F)n2)cc1C | inactive: -12.2% | –
48 | O=C1c2ccc3c4c(ccc(c24)C(=O)N1CCCCO)C(=O)N(CCCCO)C3=O | – | active: 18.4 µM
49 | O=C(C1=C[C@@H](C2CCCCC2)C[C@@H](OCCCCO)O1)N1CCN(Cc2ccc3c(c2)OCO3)CC1 | inactive: -1.53% | –
50 | CC(C)(C)OC(=O)C[C@@H]1C/C=C\C[C@H](CC(=O)N(CCO)Cc2ccccc2)C(=O)NC[C@H](c2ccccc2)OC1=O | inactive: 1.11% | –
51 | C=CCC[C@@H](Cc1ccc(F)cc1)C(=O)OC[C@@H](C)NC(=O)[C@H](CC=C)CC(=O)N(CCO)Cc1ccccc1 | inactive: -8.4% | –
52 | C=CC[C@@H](CC(=O)N(CCO)Cc1ccccc1)C(=O)N[C@@H](COC(=O)[C@@H](CC=C)CC(=O)OC(C)(C)C)Cc1c[nH]c2ccccc12 | inactive: -18.4% | –
53 | C=CC[C@H](CC(=O)N(CCO)Cc1ccccc1)C(=O)N[C@H](COC(=O)[C@@H](CC=C)Cc1ccc(F)cc1)C(C)(C)C | inactive: -6.05% | –
54 | CNc1c2cccc(C)c2nc2c(C(=O)NCCN(C)C)cccc12 | – | active: 4.61 µM
55 | O=C(CCl)Nc1cc2[nH]c(=O)[nH]c2cc1Br | – | active: 23.1 µM
56 | O=C(C[C@H]1C/C=C\CC[C@@H](Cc2ccc(F)cc2)C(=O)O[C@H](c2ccccc2)CNC1=O)N[C@H](CO)Cc1ccccc1 | inactive: 3.44% | –
57 | CCCCCCCCCCCCCCCCn1cc[n+](C)c1 | inactive: -13.2% | –
58 | C/C(=N/Nc1ccc(C(=O)c2c(C)cc3ccccn23)cc1[N+](=O)[O-])c1ccc(O)cc1 | inactive: 5.55% | –
59 | C/C(Sc1nnc(Cc2ccccc2)o1)=C(/O)c1ccccc1 | inactive: -2.47% | –
60 | CC(C)(C)OC(=O)C[C@H]1C/C=C\C[C@@H](CC(=O)N(CCO)Cc2ccccc2)C(=O)NC[C@@H](c2ccccc2)OC1=O | inactive: -8.73% | –
61 | CN(C)CCCNc1c2c(nc3ccccc13)CCC2 | – | active: 13 µM
62 | O=C(Nc1ccccc1C(=O)Nc1nnc(C(F)(F)F)s1)c1ccccc1 | – | active: 13 µM
63 | Cc1cc(C)c2oc(C(=O)N(Cc3ccc(F)cc3)C3CCS(=O)(=O)C3)cc(=O)c2c1 (centres undefined) | inactive: -14.3% | –

Row | Compound | activity change, negative = cytotoxicity | Potency
64 | C[C@]12C(=O)N(c3ccc(C(F)(F)F)cc3)C(=O)N1[C@@H]1c3ccccc3OC[C@@H]1[C@H]2c1ccccc1 | inactive: 3.82% | –
65 | CC(=O)N1CCc2c(sc(NC(=O)c3ccc([N+](=O)[O-])o3)c2C#N)C1 | – | active: 20.6 µM
66 | O=C(C[C@@H]1C/C=C/CC[C@@H](Cc2ccc(F)cc2)C(=O)OC[C@H](Cc2ccccc2)NC1=O)N[C@H](CO)Cc1ccccc1 | inactive: -7.11% | –
67 | CCN(c1ccc(OC)cc1)S(=O)(=O)c1nnc(NC(=O)c2ccccc2Cl)s1 | inactive: -15.7% | –
68 | O=Nc1c(-c2c(O)[nH]c3cc(Br)ccc23)[nH]c2ccccc12 | – | active: 20.6 µM
69 | O=C(CCN1C(=O)/C(=C\c2ccccc2)SC1=S)NCCCN1CCOCC1 | inactive: -0.597% | –
70 | CCN(CC)CCOc1ccc(/C(=C(\Cl)c2ccccc2)c2ccccc2)cc1 | inactive: -22.5% | –
71 | Cn1cccc1/C=C(\C#N)C(N)=S | inactive: -6.47% | –
72 | CCOc1ccc(Nc2oc(-c3ccc(Cl)cc3)nc2C#N)cc1 | – | active: 20.6 µM
73 | NS(=O)(=O)c1ccc(N/N=C/c2cn(-c3ccccc3)nc2-c2cccs2)c([N+](=O)[O-])c1 | – | active: 13 µM
74 | C=CC[C@@H](CC(=O)N[C@@H](CO)Cc1ccccc1)C(=O)N[C@H](COC(=O)[C@@H](CC=C)Cc1ccc(F)cc1)C(C)(C)C | inactive: -24.9% | –
75 | C=CCC[C@@H](Cc1ccc(F)cc1)C(=O)OC[C@H](C)NC(=O)[C@@H](CC=C)CC(=O)N[C@@H](CO)Cc1ccccc1 | inactive: 0.56% | –
76 | O=C1/C(=C/c2cccnc2)SC(=S)N1C1CCS(=O)(=O)C1 (centres undefined) | inactive: -15.1% | –
77 | COc1ccc(NC(=O)CCNS(=O)(=O)c2cccc3nsnc23)cc1OC | inactive: 4.24% | –
78 | C=CCC[C@@H](Cc1ccc(F)cc1)C(=O)OC[C@@H](C)NC(=O)[C@@H](CC=C)CC(=O)N[C@H](CO)Cc1ccccc1 | inactive: -10.5% | –
79 | CC(C)(C)OC(=O)C[C@@H]1C/C=C\C[C@H](CC(=O)N(CCO)Cc2ccccc2)C(=O)NC[C@@H](c2ccccc2)OC1=O | inactive: -7.95% | –
80 | CCCCNC(=O)COC(=O)c1c2c(nc3ccccc13)/C(=C/c1cccs1)CC2 | inactive: -1.39% | –
81 | O=C(N/N=C/c1ccc([N+](=O)[O-])o1)c1ccc(O)cc1 | – | active: 20.6 µM
82 | O=C1NC[C@@H](c2ccccc2)OC(=O)[C@H](Cc2ccc(F)cc2)C/C=C\C[C@H]1CC(=O)N(CCO)Cc1ccccc1 | inactive: -14.6% | –
83 | CC(=O)Nc1c(I)c(NC(C)=O)c(I)c(C(=O)O)c1I | inactive: -9.13% | –
84 | CCc1cc(C(N)=S)ccn1 | inactive: -0.595% | –

From PubChem BioAssay AID504648 (National Center for Advancing Translational Sciences (NCATS), 2011)
